The whole screen tested about 360,000 compounds, of which about 16,000 (4.4%) were called active. Inconclusive means that the source gave no clear call. Such entries were picked first, then a sample of the others. Calls follow the shape of the dose curve; as a rule, active = well fitted inhibition curve with a large enough effect; inconclusive = small, poorly fitted or top-dose-only effect; inactive = no such curve, though single readings can be large or run the other way. A potency beside an inconclusive call is a rough fit, not a confirmed value.
Target: Bromodomain adjacent to zinc finger domain protein 2B (Homo sapiens) (UniProt Q9UIF8)
Assay: qHTS Assay for Inhibitors of BAZ2B; also: nearly all actives have a fitted effect of over 60% in size
Conditions: AlphaScreen BAZ2B-H3K14Ac peptide displacement; series mostly up to 114 µM
Procedure, shortened: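 Protein-peptide AlphaScreen: BAZ2B 50 nM, b-H3K14Ac 50 nM, 1x PBS pH 7.4 + 0.01% Tween-20. Preincubation 30 min RT; cpd 30 min RT (top 110 uM); beads 20 min RT, light-protected.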
Potency is read from the fitted curve at half-maximal effect; tags tell the direction and shape of the fitted curve.

UniProt Q9UIF8, sequence (Q9UIF8 whole entry, looked up, the tested form may be a part): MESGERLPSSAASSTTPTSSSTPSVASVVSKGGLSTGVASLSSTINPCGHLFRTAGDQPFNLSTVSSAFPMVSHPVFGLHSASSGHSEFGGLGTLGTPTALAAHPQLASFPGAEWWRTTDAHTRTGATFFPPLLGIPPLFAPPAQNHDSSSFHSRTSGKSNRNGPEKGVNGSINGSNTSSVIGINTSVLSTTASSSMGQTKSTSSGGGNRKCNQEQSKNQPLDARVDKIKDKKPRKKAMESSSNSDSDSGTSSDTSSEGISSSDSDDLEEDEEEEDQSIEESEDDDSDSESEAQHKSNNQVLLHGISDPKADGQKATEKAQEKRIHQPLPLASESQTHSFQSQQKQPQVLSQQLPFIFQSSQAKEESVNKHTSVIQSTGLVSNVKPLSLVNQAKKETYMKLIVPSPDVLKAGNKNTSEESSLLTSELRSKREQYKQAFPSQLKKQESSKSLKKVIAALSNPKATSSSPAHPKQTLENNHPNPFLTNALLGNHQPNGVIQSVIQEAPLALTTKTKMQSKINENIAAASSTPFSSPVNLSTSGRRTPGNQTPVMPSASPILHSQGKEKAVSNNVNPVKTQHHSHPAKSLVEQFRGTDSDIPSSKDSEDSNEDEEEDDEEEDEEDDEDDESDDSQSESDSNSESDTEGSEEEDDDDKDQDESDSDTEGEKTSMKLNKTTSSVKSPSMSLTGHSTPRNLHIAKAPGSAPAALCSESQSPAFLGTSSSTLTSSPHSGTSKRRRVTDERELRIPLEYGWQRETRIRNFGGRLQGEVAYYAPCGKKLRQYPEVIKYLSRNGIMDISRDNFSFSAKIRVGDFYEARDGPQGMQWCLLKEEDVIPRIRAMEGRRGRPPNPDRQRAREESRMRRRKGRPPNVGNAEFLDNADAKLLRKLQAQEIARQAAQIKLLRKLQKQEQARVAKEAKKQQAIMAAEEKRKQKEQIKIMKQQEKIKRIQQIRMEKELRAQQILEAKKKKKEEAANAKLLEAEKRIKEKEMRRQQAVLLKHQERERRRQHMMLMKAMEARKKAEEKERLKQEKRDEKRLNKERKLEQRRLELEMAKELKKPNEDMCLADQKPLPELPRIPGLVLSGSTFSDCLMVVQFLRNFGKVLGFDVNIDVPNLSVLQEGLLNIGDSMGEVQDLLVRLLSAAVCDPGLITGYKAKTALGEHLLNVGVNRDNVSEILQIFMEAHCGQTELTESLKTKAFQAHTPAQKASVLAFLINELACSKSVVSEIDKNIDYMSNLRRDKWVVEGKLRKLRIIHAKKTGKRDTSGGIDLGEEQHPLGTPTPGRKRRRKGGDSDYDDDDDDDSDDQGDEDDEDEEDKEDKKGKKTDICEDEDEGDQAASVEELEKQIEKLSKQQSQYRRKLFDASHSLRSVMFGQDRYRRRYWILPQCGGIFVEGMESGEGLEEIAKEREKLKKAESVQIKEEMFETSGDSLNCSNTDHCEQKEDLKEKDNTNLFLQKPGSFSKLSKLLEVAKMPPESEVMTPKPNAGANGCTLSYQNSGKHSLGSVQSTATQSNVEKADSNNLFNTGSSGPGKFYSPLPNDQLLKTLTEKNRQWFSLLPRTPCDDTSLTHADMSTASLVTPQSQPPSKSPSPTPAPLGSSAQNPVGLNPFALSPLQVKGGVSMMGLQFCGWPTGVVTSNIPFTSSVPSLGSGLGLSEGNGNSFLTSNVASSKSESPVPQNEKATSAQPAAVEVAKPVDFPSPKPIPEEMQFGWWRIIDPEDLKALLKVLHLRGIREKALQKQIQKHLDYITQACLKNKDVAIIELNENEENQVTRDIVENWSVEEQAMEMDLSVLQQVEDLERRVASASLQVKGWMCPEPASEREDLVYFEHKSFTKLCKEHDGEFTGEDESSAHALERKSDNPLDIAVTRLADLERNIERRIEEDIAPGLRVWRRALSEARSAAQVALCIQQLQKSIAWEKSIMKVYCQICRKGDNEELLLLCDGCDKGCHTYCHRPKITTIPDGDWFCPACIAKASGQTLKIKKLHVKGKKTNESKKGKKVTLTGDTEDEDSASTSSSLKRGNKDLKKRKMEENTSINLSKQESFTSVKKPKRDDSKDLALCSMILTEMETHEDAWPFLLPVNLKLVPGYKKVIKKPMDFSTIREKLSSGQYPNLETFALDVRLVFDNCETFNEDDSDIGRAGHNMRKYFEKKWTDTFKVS

Row | Structure (SMILES) | Potency
1 | CN1CCOc2ccc(S(=O)(=O)NCCc3ccc(Cl)cc3)cc21 | inconclusive: 28.2 µM [inhibitor, partial curve]
2 | CC1=CCC(C(=O)O)C(C(=O)NC2CCCCC2)C1 (stereo not drawn) | active: 50.1 µM
3 | COCc1nnc(NC(=O)C2CC(=O)N(CCc3ccc(F)cc3)C2)s1 (stereo not drawn) | inconclusive: 22.4 µM [inhibitor, partial curve, poor fit]
4 | O=C(O)COCCN1CCN([C@H](c2ccccc2)c2ccc(Cl)cc2)CC1 | inconclusive: 79.4 µM [inhibitor, single point]
5 | O=C(NCc1cccs1)c1cccc(S(=O)(=O)N2CCCCC2)c1 | inactive
6 | COc1cc(/C=C/c2nc3ccccc3s2)cc(OC)c1O | inconclusive: 25.1 µM [inhibitor, full curve]
7 | CCC(C)(C)C1CCC(=NNc2nc3ccccc3[nH]2)CC1 (stereo not drawn) | inconclusive: 31.6 µM [inhibitor, full curve]
8 | N#Cc1ccsc1NC(=O)COC(=O)C1=NNC(=O)CC1 | inconclusive: 50.1 µM [inhibitor, partial curve]
9 | O=C1OCC(c2ccc(Cl)s2)=C1c1ccccc1[N+](=O)[O-] | inconclusive: 79.4 µM [inhibitor, single point]
10 | COc1ccc2c(CCNC(=O)Nc3ccccc3)c[nH]c2c1 | inactive
11 | CC1CCN(S(=O)(=O)c2ccc3c(ccn3CC(=O)NCc3ccccc3F)c2)CC1 | inactive
12 | COC(=O)c1[nH]c2cc(C)ccc2c1NC(=O)CN1CCN(c2ccccc2OC)CC1 | inconclusive: 89.1 µM [inhibitor, single point]
13 | O=C(Nc1ccccc1N1CCOCC1)c1ccco1 | inactive
14 | CCCCOc1ccccc1C(=O)N(Cc1ccco1)C1CCS(=O)(=O)C1 (stereo not drawn) | inconclusive: 89.1 µM [inhibitor, single point]
15 | N#Cc1ccccc1OCCCN1CCC(Cc2ccccc2)CC1 | inconclusive: 56.2 µM [inhibitor, partial curve]
16 | COC(=O)C1=C(CN2CCCc3ccccc32)NC(=O)NC1c1ccc(F)cc1 (stereo not drawn) | inconclusive: 79.4 µM [inhibitor, single point]
17 | CN(C)c1ccc(/C=C/c2ccncc2)cc1 | inconclusive: 39.8 µM [inhibitor, partial curve]
18 | CCCc1nc2c([nH]1)c(=O)n(C)c(=O)n2C | inactive
19 | O=S(=O)(Nc1ccc2c(c1)OCO2)c1ccc(F)c(F)c1 | inactive
20 | CCN(C(=O)COC(=O)Cc1c[nH]c2ccccc12)C1CCS(=O)(=O)C1 (stereo not drawn) | inactive
21 | Cc1ccc(CN(C(=O)c2ccc(F)cc2)c2ccccn2)o1 | inconclusive: 89.1 µM [inhibitor, single point]
22 | CN=c1scc(C)n1/N=C/c1ccc(O)cc1O | active: 39.8 µM
23 | Cc1cc(C(=O)CSc2ncn[nH]2)c(C)n1-c1cccc(S(=O)(=O)N2CCOCC2)c1 | inconclusive: 89.1 µM [inhibitor, single point]
24 | Cc1ccc(-n2nc(C)c3c2OC(N)=C(C#N)C3c2ccco2)cc1 (stereo not drawn) | active: 17.8 µM

Row | Structure (SMILES) | Potency
25 | O=C(O)Cn1nnc(-c2cccs2)n1 | inactive
26 | COc1ccc(CNCCNC(=O)c2ccco2)c(OC)c1OC | inconclusive: 89.1 µM [inhibitor, single point]
27 | CS(=O)(=O)Nc1ccc(-c2n[nH]c(=S)n2-c2ccccc2)cc1 | inactive
28 | COc1ccc(-c2cc(C(=O)Nc3cccc(C(C)=O)c3)no2)cc1OC | inactive
29 | COc1ccc(S(=O)(=O)N2CCN(CC(=O)Nc3ccc(F)c(F)c3)CC2)cc1 | inactive
30 | Cc1ccc(C)c2c3c([nH]c12)-c1nonc1CC3 | inconclusive: 39.8 µM [inhibitor, single point]
31 | CCOC(=O)c1c(/N=C/c2cc(OC)cc([N+](=O)[O-])c2O)sc(C)c1C | active: 50.1 µM
32 | Cc1cc(OCCN2CCOCC2)ccc1Cl | inconclusive: 89.1 µM [inhibitor, single point]
33 | CC(C)CCNC(=O)c1cnn2c(C(F)(F)F)cc(-c3ccco3)nc12 | inconclusive: 89.1 µM [inhibitor, single point]
34 | CCC1(C)Cc2c(C#N)c(N)sc(=S)c2CO1 (stereo not drawn) | inconclusive: 63.1 µM [inhibitor, single point]
35 | COc1ccc([C@H]2C(C#N)=C([S-])N[C@](C)(O)[C@@H]2[n+]2ccccc2)cc1 | inactive
36 | CCN(CC)c1ccc(/C=N/N2CCN(Cc3ccccc3)CC2)c(O)c1 | active: 12.6 µM
37 | CCN(CC)c1ccc(NC(=O)c2ccccc2F)cc1 | active: 44.7 µM
38 | CC1Cc2cccc3c(O)c(C(=O)c4nn[nH]n4)c(=O)n1c23 (stereo not drawn) | inconclusive: 89.1 µM [inhibitor, single point]
39 | Cc1ccc(-c2nc(C#N)c(NCc3cccc4c3OCO4)o2)cc1 | inconclusive: 28.2 µM [inhibitor, full curve]
40 | O=[N+]([O-])c1cccc(/C=N\N2CCN(Cc3ccccc3Cl)CC2)c1 | active: 35.5 µM
41 | Cc1ccccc1CN1CCC(N2CCC(C(=O)NCC3CCCO3)CC2)CC1 (stereo not drawn) | inactive
42 | Cc1ccc(NS(=O)(=O)c2c(C)[nH]c(C)c2C(=O)N2CCCCC2)c(Cl)c1 | inconclusive: 79.4 µM [inhibitor, single point]
43 | O=C(/C=C/c1ccc([N+](=O)[O-])cc1)Nc1cccnc1 | inconclusive: 89.1 µM [inhibitor, single point]
44 | CN(C)c1cccc(C(=O)Nc2cc(C(F)(F)F)ccc2-n2cnc3ccccc32)c1 | inconclusive: 44.7 µM [inhibitor, partial curve]
45 | Cc1cccn2c(=O)c3cc(C(N)=S)c(=N)n(CCCN4CCOCC4)c3nc12 | inactive
46 | CCOC(=O)c1c(CSc2ccccc2)n(C)c2ccc(O)cc12 | inactive
47 | C=CC[n+]1c(-c2ccc(C)cc2)csc1Nc1ccc(NC(C)=O)cc1 | inconclusive: 22.4 µM [inhibitor, partial curve]
48 | COc1cc(/C=N/n2c(-c3cc(C)[nH]n3)n[nH]c2=S)cc(OC)c1O | inconclusive: 79.4 µM [inhibitor, single point]

— PubChem BioAssay AID504333 (National Center for Advancing Translational Sciences (NCATS), 2011)
